Reference: US11135177B2, “Methods of making and using compositions comprising flavonoids” (VIZURI HEALTH SCIENCES CONSUMER HEALTHCARE, INC., priority 2009, dated 2021)
≈ marks a conversion by molar mass, not a printed value. Like-named read-outs stand apart in the source and are kept apart here. Blank lines part the entries; values can stand above or below the molecule they belong to.

Columns and labels:
[1] = Solubility in polysorbate 80 and other nonionic surfactants via the high temperature processing method
[2] = Qualitative assessment of hydrated flavonoid suspension in Aqueous Phase Lotion diluted with water; type: physicochemical; conditions: hydrated flavonoid 1.25% in APL; 5 ml of lotion in 150 ml of water
[3] = cited from earlier work; for SOLUBILITY (ppm) / solubility: published; for WATER SOLUBILITY (mg/ml): saturation concentrations varied depending on published sources
[4] = process 1: high temperature method as for apigenin
[5] = process 2: H2O & PS80 slurry boiled

- Evidence of Flavonoid Solubility [2]: Yes
- Evidence of Nano Particles [2]: Yes
- Particulate Settling After 3 hours [2]: None/Pink
Structure (SMILES): Oc1ccc(C=Cc2cc(O)cc(O)c2)cc1 [RESVERATROL]
- solubility in alcohol ([3]; in alcohol, published sources): 50 mg/mL (≈ 219 mM)

- Evidence of Nano Particles [2]: Yes
- Particulate Settling After 3 hours [2]: None
Structure (SMILES): O=c1c(O)c(-c2ccc(O)c(O)c2)oc2cc(O)cc(O)c12 [quercetin, Quercetin]
- WATER SOLUBILITY (mg/ml) [3]: * <1 mg/ml

Second part, the molecule before the results:

Structure (SMILES): COc1ccc([C@@H]2CC(=O)c3c(O)cc(O[C@@H]4O[C@H](CO[C@@H]5O[C@@H](C)[C@H](O)[C@@H](O)[C@H]5O)[C@@H](O)[C@H](O)[C@H]4O)cc3O2)cc1O [HESPERIDIN]
- SOLUBLE CONC. RANGE (% wt/wt) in PS80 [1, 4]: 1. ~<2% wt/wt
- SOLUBLE CONC. RANGE (mg/ml) in PS80 [1, 4]: (20 mg/ml)
- SOLUBLE CONC. RANGE (% wt/wt) in PS80 [1, 5]: 2. ~<1% wt/wt
- SOLUBLE CONC. RANGE (mg/ml) in PS80 [1, 5]: (<10 mg/ml)
- Evidence of Nano Particles [2]: Yes
- Particulate Settling After 3 hours [2]: None/Cloudy

Structure (SMILES): O=c1cc(-c2ccc(O)cc2)oc2cc(O)cc(O)c12 [apigenin, 4′,5,7,-trihydroxyflavone]
- SOLUBILITY (ppm) ([3]; Ethyl Alcohol): 1,630 ppm
- solubility ([3]; Ethyl Alcohol): 1.65 mg/mL (≈ 6.11 mM)
- SOLUBILITY (ppm) ([3]; Polysorbate 80): 370 ppm
- solubility ([3]; Polysorbate 80): 0.37 mg/mL (≈ 1.37 mM)
- Apigenin Literature Solubility ([3]; Propylene Glycol): <0.1 mg/mL
- Apigenin Literature Solubility ([3]; Span 20): 0.17 mg/mL
- Apigenin Literature Solubility ([3]; Span 80): 0.15 mg/mL
- SOLUBILITY (ppm) ([3]; Water): 1.35 ppm
- solubility ([3]; Water): 0.00135 mg/mL (≈ 0.005 mM)
- WATER SOLUBILITY (mg/ml) [3]: * 0.00002 mg/ml

Structure (SMILES): O=c1cc(-c2ccc(O)c(O)c2)oc2cc(O)cc(O)c12 [luteolin, 3′,4′,5,7-tetrahydroxyflavone]
- Evidence of Nano Particles [2]: Yes
- WATER SOLUBILITY (mg/ml) [3]: * 0.38 mg/ml

Structure (SMILES): C[C@@H]1O[C@@H](OC[C@H]2O[C@@H](Oc3c(-c4ccc(O)c(O)c4)oc4cc(O)cc(O)c4c3=O)[C@H](O)[C@@H](O)[C@@H]2O)[C@H](O)[C@H](O)[C@H]1O [rutin, RUTIN]
- WATER SOLUBILITY (mg/ml) [3]: * 0.07 mg/ml
